Our source for the displacement values is PubChem BioAssay AID1240 (Sanford-Burnham Center for Chemical Genomics, 2008).

Out of some 50,000 compounds screened, about 800 (1.6%) showed an effect of 50% or more. This is one part of the list.

This test deals with Bcl-2-like protein 10 (Homo sapiens) (UniProt Q9HD36). Briefly: TR3 peptide-Bcl-B binding displacers, biochemical primary FP assay, phenotype converters (AID 1240).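 Note: 0% = Bcl-B with tracer peptide and DMSO and 100% = tracer peptide lacking Bcl-B.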 The note with it: GST-Bcl-B / FITC-TR3 peptide fluorescence polarization; stronger effect = higher value; compound at 3.75 mg/L.
Sequence of UniProt Q9HD36 (Q9HD36 whole entry, looked up): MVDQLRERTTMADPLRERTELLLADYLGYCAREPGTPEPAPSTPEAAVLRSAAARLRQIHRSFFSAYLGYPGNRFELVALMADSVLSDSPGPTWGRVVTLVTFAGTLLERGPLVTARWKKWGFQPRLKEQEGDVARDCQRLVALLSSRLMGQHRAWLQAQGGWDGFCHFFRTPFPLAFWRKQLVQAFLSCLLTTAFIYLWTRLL
Take `O=[N+]([O-])c1ccc(Oc2ccccc2Br)cc1`: the displacement is 6.9%.

`CCOc1cc(/C=N\N2CCN(c3ccc(Cl)cc3)CC2)ccc1O`: the displacement was 0.1%.

In the case of `O=C1CSC(c2ccc(Cl)c(Cl)c2)N1CCN1CCCCC1` (stereo unspecified), the displacement amounted to 3%.

With `S=C(c1ccc(-c2ccccc2Cl)o1)N1CCOCC1`, the displacement was -0.7%.

Consider `Cc1ccc2oc(-c3ccc(NC(=O)c4cc5ccccc5o4)cc3)nc2c1`, for which the displacement was found to be 20.8%.

`COc1ccc(Br)cc1/C=C/C(=O)c1ccc(C)cc1`: the displacement was -3.8%.

In the case of `COc1ccc(-n2nc3ccc(NC(=O)/C=C\c4ccccc4)cc3n2)cc1`, the displacement was -1.2%.

With `CC(=O)c1cccc(NC(=S)NCc2ccccc2)c1`, the displacement was -10.3%.

As to `Cc1cc(OCC(=O)Nc2cccnc2)ccc1Cl`, the displacement is -5.8%.

In the case of `O=C(Oc1ccc(C(=S)N2CCOCC2)cc1)c1ccccc1Cl`, the displacement came to 1.1%.

In the case of `CC1=NN(c2ccccc2)C(=O)/C1=C\c1c(O)n(-c2ccc(C)cc2)[nH]c1=O`, the displacement came out at 1.9%.

Turning to `CN1CCN(/N=C/c2ccc(Cl)cc2Cl)CC1`, the displacement was 1.4%.

With `COC(=O)c1ccc(CN(c2cccc3cccnc23)S(=O)(=O)c2ccc(C)cc2)cc1`, the displacement came out at 7.9%.

Turning to `O=C(NC(=S)Nc1ccc(NC(=O)c2ccco2)c(Cl)c1)c1ccc(Cl)cc1`, the displacement turned out to be 35.9%.

With `Cc1nc2ccccc2n1Cc1ccccc1Br`, the displacement turned out to be 8%.

With `O=C(Cc1ccc([N+](=O)[O-])cc1)Nc1c(Cl)cccc1Cl`, the displacement is -11.6%.

Turning to `CC(C)Oc1ccc(/C=C(/NC(=O)c2ccccc2)C(=O)Nc2ccccc2)cc1`, the displacement amounted to 3.5%.

As for `O=C(CSc1nnc(-c2cccc(Cl)c2)n1-c1ccccc1)c1cccc([N+](=O)[O-])c1`, the displacement was -13.2%.

Regarding `Cc1ncc([N+](=O)[O-])n1CCOC(=O)Nc1ccc(Cl)c(Cl)c1`, the displacement amounted to 0.8%.

On to `CCOC(=O)C1=C(O)/C(=C/c2ccc(N(CC)CC)cc2)SC1=Nc1cccc(Cl)c1`, for which the displacement was -37.6%.

For `COc1ccc(/C=C2\SC(N3CCCC3)=NC2=O)c(OC)c1`, the displacement is -18.5%.

As to `CCOC(=O)c1c(-n2c(C)cc(/C=C3\NC(=S)NC3=O)c2C)sc2c1CCCC2`, the displacement is -36.7%.

Take `O=C(NNC(=O)C1CCCCC1)c1ccccc1Cl`: the displacement was -12.1%.

Turning to `O=C(/C=C/c1ccc(-c2ccccc2[N+](=O)[O-])o1)c1cc2ccccc2o1`, the displacement came to 44.1%.

Turning to `O=S(=O)(O)c1ccc2c(c1)C(S(=O)(=O)O)CC(=N\O)/C2=N/O` (stereo unspecified), the displacement stood at 1.4%.

In the case of `CCOC(=O)Cn1c(C)nc2c(C(=O)OCC)sc(C)c2c1=O`, the displacement is 4.2%.

Consider `C=Cc1ccc(COc2ccc3c4c(c(=O)oc3c2)CCC4)cc1`, for which the displacement is 7.4%.

Turning to `CCCC(=O)Nc1nc2ccc(Cl)cc2s1`, the displacement was 6.5%.

`CCOc1cc(OCC)cc(C(=O)Nc2ccc(Cl)c(NC(=O)c3ccco3)c2)c1`: the displacement came to 13%.

`Cc1nc2ccc(NC(=S)N3CCCC3)cc2nc1C`: the displacement was -3%.

Take `CCOC(=O)c1ccc(N2NC(=O)/C(=C/c3ccc4c(c3)OCO4)C2=O)cc1`: the displacement is -3%.
